{
  "source": "PubChem BioAssay AID686978",
  "about": "(National Center for Advancing Translational Sciences (NCATS), 2013)",
  "note": "Several values for one entry are separate records, joined by “and”; a condition that tells them apart may be missing. Identical values can stand only once. About 64,000 (15%) of roughly 420,000 compounds were called active. The shares of active, inactive and inconclusive entries below differ from those in the screen. Calls come from the whole dose curve; as a rule, active = well fitted inhibition curve with a large enough effect; inconclusive = small, poorly fitted or top-dose-only effect; inactive = flat fitted curve, though single readings scatter. Potencies of inconclusive entries are left out as doubtful fits. % is set by controls: 0 for no effect and ±100 for the full control effect; potency is the fitted concentration of half-maximal effect; tags give direction and shape of the fitted curve.",
  "data": [
    {"assay": "qHTS for Inhibitors of human tyrosyl-DNA phosphodiesterase 1 (TDP1): qHTS in cells in absence of CPT; note: nearly all actives have a fitted effect of over 55% in size", "details": "DT40 Tdp1-/- hTDP1 cells, no CPT, ATP luminescence, 48 h; activity change, negative = growth inhibition: at 46.2 µM (top of the series) unless noted", "how_it_was_run": "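Seeded 400 DT40-hTDP1 cells/well (vehicle DMSO, no 20 nM CPT); pinned compounds; ≥48 hr at 37 °C; CellTiter-Glo luminescence as viability measure.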", "values": [
      {"smiles": "CCn1c2ccccc2c2cc(NC(=O)c3cccc(OC)c3OC)ccc21", "Potency": "active: 4.11 µM"},
      {"smiles": "CC(C)(C)[C@@H]1CCC(=O)N(CC[C@H](N=[N+]=[N-])c2ccccc2)CC1", "Potency": "active: 12.6 µM and active: 18.4 µM"},
      {"smiles": "O=C(CN1CCCCC1)N/N=C/c1cc2ccccc2nc1Cl", "Potency": "inconclusive [inhibitor, single point]"},
      {"smiles": "CCOc1ccccc1N1CCN(S(=O)(=O)c2cccc3nsnc23)CC1", "Potency": "inconclusive [inhibitor, single point]"},
      {"smiles": "COC(=O)[C@]1(Cc2ccccc2)N[C@H](CN(C)C(=O)Nc2ccc(C(F)(F)F)cc2)[C@@H]2C(=O)N(C)C(=O)[C@@H]21", "Potency": "inconclusive [inhibitor, partial curve, poor fit]"},
      {"smiles": "COC(=O)[C@@]12C[C@@H](CC(=O)N3CCOCC3)C(=O)N(Cc3ccccc3)C1=CCC(C)(C)C2", "Potency": "inconclusive [inhibitor, single point]"},
      {"smiles": "COCC(=O)N1CCC2CC1c1c(-c3ccc(C(F)(F)F)cc3)cccc12", "note": "(stereo not drawn)", "Potency": "inconclusive [inhibitor, single point]"},
      {"smiles": "O=C(Nc1ccc2c(c1)CCCN2C(=O)c1cccs1)c1ccc(F)c(F)c1", "Potency": "active: 20.6 µM"},
      {"smiles": "O=C(Nc1ccc([N+](=O)[O-])cn1)c1ccc(Br)o1", "activity change, negative = growth inhibition": "inconclusive: -32.1% [inhibitor]"},
      {"smiles": "Cc1cccc(OCC(O)Cn2c(NCCCOC(C)C)nc3c2c(=O)[nH]c(=O)n3C)c1", "note": "(stereo not drawn)", "Potency": "inconclusive [inhibitor, partial curve]"},
      {"smiles": "CCC(C)NC(=O)c1ccccc1NC(=O)C1COc2ccccc2O1", "note": "(stereo not drawn)", "Potency": "inconclusive [inhibitor, single point]"},
      {"smiles": "CCc1nc2c(OCC3CCCCC3)cccn2c1N(C)C(=O)c1ccccc1F", "Potency": "active: 16.4 µM"},
      {"smiles": "O=C(O)c1cn(Cc2ccccc2)c2ccc(Cl)cc2c1=O", "Potency": "inconclusive [inhibitor, single point]"},
      {"smiles": "CCc1[nH]nc(C(=O)N2CCCC(C(=O)c3cccc(C(F)(F)F)c3)C2)c1C", "note": "(stereo not drawn)", "Potency": "inconclusive [inhibitor, single point]"},
      {"smiles": "O=C(N/N=C/c1ccc(N2CCOCC2)s1)c1ccccc1Cl", "activity change, negative = growth inhibition": "inactive: -20.1%"},
      {"smiles": "CCc1ccc(C(=O)COC(=O)c2ccc(-c3nnc(-c4ccccc4)o3)cc2)cc1", "activity change, negative = growth inhibition": "inactive: -8.29%"},
      {"smiles": "C#Cc1ccc([C@H]2C=C(C(=O)Nc3ccccc3)O[C@@H](OCc3ccc(CO)cc3)C2)cc1", "Potency": "inconclusive [inhibitor, single point]"},
      {"smiles": "O=C(C1CCCCC1)N1CCCc2ccccc21", "Potency": "inconclusive [inhibitor, single point]"}
    ]}
  ]
}
